Measured values reported in the supplement of paper PMC3334620.
In all, about 33,000 sequences were measured (“E-score (-0.5 to 0.5)”: median about -0.054, highest 2% from about 0.39 on). The list shows a part of the results.

These sequences were tested against Ylr278c (UniProt Q05854) (assay: PBM E-score (8-mer binding enrichment) (E-score (-0.5 to 0.5)); higher = stronger / more preferred TF binding; most listed sequences are background and not binding sites). Settings: protein concentration: 200 nM; construct: GST-DNA-binding domain.
Procedure, shortened: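 PURExpress in vitro transcription/translation supplied GST-tagged yeast transcription factors, either full-length or DNA-binding domain. Applied at about 100-200 nM to universal all-10-mer Agilent arrays double-stranded by primer extension, the bound protein was detected with fluorescent anti-GST. E-scores, modified Wilcoxon-Mann-Whitney statistics, were given by the Universal PBM Analysis Suite to ungapped eight-base words pooled with their reverse complements after masliner normalisation.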

Row | Sequence | PBM E-score
1 | CTGACCAG | -0.286
2 | ATAGACGG | 0.195
3 | AGCGAGAG | 0.0233
4 | AGTAGAGG | -0.395
5 | TAACTGTA | -0.257
6 | AGTTACGC | -0.127
7 | GCCACGAC | 0.114
8 | ACCTAATC | -0.0418
9 | AAAGATAT | 0.00155
10 | GAATGCCC | 0.0461
11 | ATGTGGAG | 0.0389
12 | CACGCCCG | 0.179
13 | CCAGATTC | 0.0544
14 | TCGCAGCA | -0.222
15 | GAAACATC | -0.159
16 | ATTGCGCG | 0.303
17 | GGAAGCAA | 0.0252
18 | GACACGGC | 0.174
19 | ATCATTTA | -0.0754
20 | CATAAGGC | 0.0151
21 | AATACAGT | -0.118
22 | CTCACGTA | -0.167
23 | AAGTTTAA | -0.188
24 | AAAGGGTT | -0.111
25 | CGAACGTC | -0.0941

Row | Sequence | PBM E-score
26 | ACATACAA | -0.0587
27 | GACCTGCA | -0.294
28 | AAACCCTG | -0.095
29 | CACTCGGG | 0.178
30 | CCCCAGCG | -0.156
31 | TACCCCAA | 0.00366
32 | AGGTGCTG | -0.0925
33 | AAAATTAG | 0.181
34 | AACGAGAC | 0.0299
35 | CATACAAA | 0.0558
36 | CATCCGTC | 0.116
37 | AGATTGCC | 0.0821
38 | CGACAATA | 0.104
39 | TCGCATAA | -0.041
40 | GTGATACA | -0.151
41 | ATGCCTGA | -0.0953
42 | ATTAGCCC | 0.113
43 | CTCCCAAG | -0.115
44 | GTCCTTCA | -0.0346
45 | AAGGACTT | -0.0763
46 | AGCCTCAT | -0.0515
47 | ATCTCATC | -0.0791
48 | CGAACCCA | -0.0331
49 | AAACTCTC | 0.104
50 | CATGGTTA | -0.134

Row | Sequence | PBM E-score
51 | CTGTACGA | -0.176
52 | AGTGTGAG | -0.25
53 | CAAATCCA | -0.0454
54 | CGCCACCG | 0.131
55 | AAGGGTCT | -0.155
56 | CTTGGATA | 0.0652
57 | ACCAGTAG | -0.147
58 | ATTGGCGA | -0.288
59 | GTTTAGGA | -0.122
60 | AGAGCGGA | 0.254
61 | AATCACCT | -0.0602
62 | AGCAGAGC | -0.226
63 | AGGACGTC | 0.0253
64 | ACAATGCC | 0.181
65 | ATAAAGGG | -0.103
66 | GCCTTGCA | -0.269
67 | CCTCTAAA | -0.319
68 | AGCATCTC | -0.0457
69 | GCACAAAA | 0.152
70 | CACCATCG | -0.15
71 | ACCCTCTC | -0.08
72 | CTCGCAAA | -0.258
73 | GTCCCTAA | -0.0663
74 | GACTGTAC | -0.155
75 | CCTGGGAA | -0.134

Row | Sequence | PBM E-score
76 | CCGATTCG | 0.267
77 | ACGGTCAA | 0.0459
78 | AACGATAA | -0.0408
79 | CATTACGA | -0.359
80 | ATAACCCG | 0.209
81 | CCTGATCA | -0.168
82 | CGTCATCC | -0.0289
83 | AAAGGATC | -0.141
84 | AGCCCGCT | -0.0693
85 | CGACCATA | -0.0958
86 | ATACGTCG | 0.0915
87 | TACAAATA | -0.0585
88 | AAAGACAT | -0.178
89 | CGGACCAC | 0.293
90 | CATTTGTA | -0.118
91 | AAAGTTAC | -0.143
92 | AGGGGCAT | -0.0977
93 | GGTATTAA | 0.0784
94 | AGACTGAG | -0.244
95 | CGCCTGCA | -0.194
96 | ACGGACTG | 0.0807
97 | CGAACTAA | -0.0681
98 | AAAAACCA | 0.0223
99 | GGAAATCC | 0.346
100 | GACGACGA | -0.0714

Row | Sequence | PBM E-score
101 | GCGATAAC | 0.215
102 | CATGTGAG | -0.29
103 | CCGTATGC | 0.261
104 | GCGCGACC | 0.0712
105 | GTCCATGA | -0.179
106 | CAGAAGGA | -0.338
107 | AACCTAAG | -0.182
108 | CAGTTAAA | -0.113
109 | AGCCCTCG | -0.143
110 | TTCTTAAA | -0.17
111 | AACAGATG | -0.158
112 | CCCGCAAA | 0.189
113 | AAACAAAA | -0.0847
114 | TACCTAGA | -0.233
115 | AACTAGGG | -0.195
116 | ACAAAAAA | -0.0599
117 | CACTGTCA | -0.307
118 | CTCGCCTA | -0.0539
119 | CAGGAAAA | 0.00343
120 | CGCGAGAA | 0.178
121 | GAGCACTA | -0.178
122 | ATCGCAAA | -0.105
123 | AAGATGGA | -0.0501
124 | AGCGTTGG | -0.209
125 | GCTGCCCA | -0.193

Row | Sequence | PBM E-score
126 | GCTAATCA | -0.116
127 | TATTGCCA | -0.0931
128 | GCGCTGGA | 0.11
129 | CGAAGTCA | -0.0453
130 | ATTCGCTC | 0.0759
131 | ACAGCTCC | 0.13
132 | GATGTTCC | 0.179
133 | TACAATCA | -0.16
134 | AAATGTAG | -0.0275
135 | ATTCGTAC | -0.102
136 | AAGAGATA | -0.194
137 | GATCGACA | -0.055
138 | CCATTTGA | -0.00555
139 | CGTGCTAA | -0.0776
140 | AATCTTGT | 0.0194
141 | GTCGCAGA | -0.00463
142 | ACCCTCCC | 0.251
143 | TACTCCAA | -0.243
144 | CTTCAGTC | -0.134
145 | TCTTCGCA | 0.0722
146 | AACGAAGG | -0.238
147 | ACGTCAAC | -0.0531
148 | GATCAGGC | -0.0423
149 | ATTGAGTG | -0.0839
150 | AGTCTAGA | -0.209

Row | Sequence | PBM E-score
151 | TCCAAGGA | 0.0797
152 | CCTTCAGC | -0.208
153 | CCGCGGAG | 0.449
154 | CAGACATA | 0.03
155 | ACTAGCGA | -0.0813
156 | AAACGGCA | 0.0355
157 | ATACATCA | -0.138
158 | GTCTTCAA | -0.344
159 | GGGCTCAA | -0.00819
160 | CAGAGGTA | -0.232
161 | GGATCCAC | -0.0712
162 | GATGCCGC | 0.181
163 | CGAGCTCG | 0.105
164 | GGCGTAGA | -0.0366
165 | CTAACACC | -0.026
166 | AATTCGCA | 0.214
167 | GATCACGA | -0.209
168 | CGCGTAGC | 0.0684
169 | CCCTACGG | 0.0961
170 | GACACTAC | 0.0999
171 | CTAGAATA | -0.0546
172 | ATACTCGC | 0.166
